Positions count from the first letter of the chain named. The list shows a part of the results.
T1: RBFOX1 RRM (Homo sapiens, UniProt Q9NWB1 109-208)
T1 sequence: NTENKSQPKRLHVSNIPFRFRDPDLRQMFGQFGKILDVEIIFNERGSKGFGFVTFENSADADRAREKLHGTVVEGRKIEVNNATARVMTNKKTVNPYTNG

B1: GUGAUAA (DNA:RNA)
RNA: GGGAGACCGGAAUUCAGAUUGUCCGUGAUAAUUAAAUCCCGUCGUAGCCACCA
DNA 1: CAATCTGAATTCCGGTCTCCC
DNA 2: TGGTGGCTACGACGGGATT
B2: CGGAGCG (DNA:RNA)
RNA: B1 RNA with G25C, U26G, U29G, A30C, A31G
DNA 1: CAATCTGAATTCCGGTCTCCC
DNA 2: TGGTGGCTACGACGGGATT
B3: GUGGUGA (DNA:RNA)
RNA: B1 RNA with A28G, A30G
DNA 1: CAATCTGAATTCCGGTCTCCC
DNA 2: TGGTGGCTACGACGGGATT
B4: AGUGAGG (DNA:RNA)
RNA: GGGAGACCGGAAUUCAGAUUGUCCAGUGAGGUUAAAUCCCGUCGUAGCCACCA
DNA 1: CAATCTGAATTCCGGTCTCCC
DNA 2: TGGTGGCTACGACGGGATT
B5: ACAAGAG (DNA:RNA)
RNA: B4 RNA with G26C, U27A, G28A, A29G, G30A
DNA 1: CAATCTGAATTCCGGTCTCCC
DNA 2: TGGTGGCTACGACGGGATT
B6: UUGCGUA (DNA:RNA)
RNA: B1 RNA with G25U, A28C, U29G, A30U
DNA 1: CAATCTGAATTCCGGTCTCCC
DNA 2: TGGTGGCTACGACGGGATT
B7: CUGCACG (DNA:RNA)
RNA: B4 RNA with A25C, G26U, U27G, G28C, G30C
DNA 1: CAATCTGAATTCCGGTCTCCC
DNA 2: TGGTGGCTACGACGGGATT
B8: UGAGUUU (DNA:RNA)
RNA: B4 RNA with A25U, U27A, A29U, G30U, G31U
DNA 1: CAATCTGAATTCCGGTCTCCC
DNA 2: TGGTGGCTACGACGGGATT
B9: UAGCGAG (DNA:RNA)
RNA: B1 RNA with G25U, U26A, A28C, U29G, A31G
DNA 1: CAATCTGAATTCCGGTCTCCC
DNA 2: TGGTGGCTACGACGGGATT
B10: AUGUUGU (DNA:RNA)
RNA: B1 RNA with G25A, A28U, A30G, A31U
DNA 1: CAATCTGAATTCCGGTCTCCC
DNA 2: TGGTGGCTACGACGGGATT
B11: GACAACU (DNA:RNA)
RNA: B1 RNA with U26A, G27C, U29A, A30C, A31U
DNA 1: CAATCTGAATTCCGGTCTCCC
DNA 2: TGGTGGCTACGACGGGATT
B12: CCUUCAU (DNA:RNA)
RNA: B4 RNA with A25C, G26C, G28U, A29C, G30A, G31U
DNA 1: CAATCTGAATTCCGGTCTCCC
DNA 2: TGGTGGCTACGACGGGATT
B13: GCCCUAA (DNA:RNA)
RNA: B1 RNA with U26C, G27C, A28C
DNA 1: CAATCTGAATTCCGGTCTCCC
DNA 2: TGGTGGCTACGACGGGATT
B14: UCGAGAG (DNA:RNA)
RNA: B1 RNA with G25U, U26C, U29G, A31G
DNA 1: CAATCTGAATTCCGGTCTCCC
DNA 2: TGGTGGCTACGACGGGATT
B15: UAGAUGA (DNA:RNA)
RNA: B1 RNA with G25U, U26A, A30G
DNA 1: CAATCTGAATTCCGGTCTCCC
DNA 2: TGGTGGCTACGACGGGATT
B16: AACUUUU (DNA:RNA)
RNA: B4 RNA with G26A, U27C, G28U, A29U, G30U, G31U
DNA 1: CAATCTGAATTCCGGTCTCCC
DNA 2: TGGTGGCTACGACGGGATT
B17: UAAUUCU (DNA:RNA)
RNA: B1 RNA with G25U, U26A, G27A, A28U, A30C, A31U
DNA 1: CAATCTGAATTCCGGTCTCCC
DNA 2: TGGTGGCTACGACGGGATT
B18: GUGUGUU (DNA:RNA)
RNA: B1 RNA with A28U, U29G, A30U, A31U
DNA 1: CAATCTGAATTCCGGTCTCCC
DNA 2: TGGTGGCTACGACGGGATT
B19: AUUACAU (DNA:RNA)
RNA: B1 RNA with G25A, G27U, U29C, A31U
DNA 1: CAATCTGAATTCCGGTCTCCC
DNA 2: TGGTGGCTACGACGGGATT
B20: CCAGUCG (DNA:RNA)
RNA: B4 RNA with A25C, G26C, U27A, A29U, G30C
DNA 1: CAATCTGAATTCCGGTCTCCC
DNA 2: TGGTGGCTACGACGGGATT
B21: CCGUAGG (DNA:RNA)
RNA: B4 RNA with A25C, G26C, U27G, G28U
DNA 1: CAATCTGAATTCCGGTCTCCC
DNA 2: TGGTGGCTACGACGGGATT
B22: UGUGGCC (DNA:RNA)
RNA: B4 RNA with A25U, A29G, G30C, G31C
DNA 1: CAATCTGAATTCCGGTCTCCC
DNA 2: TGGTGGCTACGACGGGATT
B23: UGCUGGG (DNA:RNA)
RNA: B4 RNA with A25U, U27C, G28U, A29G
DNA 1: CAATCTGAATTCCGGTCTCCC
DNA 2: TGGTGGCTACGACGGGATT
B24: CGCUAAU (DNA:RNA)
RNA: B4 RNA with A25C, U27C, G28U, G30A, G31U
DNA 1: CAATCTGAATTCCGGTCTCCC
DNA 2: TGGTGGCTACGACGGGATT
B25: CUGACUC (DNA:RNA)
RNA: B1 RNA with G25C, U29C, A30U, A31C
DNA 1: CAATCTGAATTCCGGTCTCCC
DNA 2: TGGTGGCTACGACGGGATT
B26: CCCCCGU (DNA:RNA)
RNA: B4 RNA with A25C, G26C, U27C, G28C, A29C, G31U
DNA 1: CAATCTGAATTCCGGTCTCCC
DNA 2: TGGTGGCTACGACGGGATT
B27: AACCCCG (DNA:RNA)
RNA: B4 RNA with G26A, U27C, G28C, A29C, G30C
DNA 1: CAATCTGAATTCCGGTCTCCC
DNA 2: TGGTGGCTACGACGGGATT
B28: UCUUCUG (DNA:RNA)
RNA: B4 RNA with A25U, G26C, G28U, A29C, G30U
DNA 1: CAATCTGAATTCCGGTCTCCC
DNA 2: TGGTGGCTACGACGGGATT
B29: UGCGGUG (DNA:RNA)
RNA: B4 RNA with A25U, U27C, A29G, G30U
DNA 1: CAATCTGAATTCCGGTCTCCC
DNA 2: TGGTGGCTACGACGGGATT
B30: CUGCGCG (DNA:RNA)
RNA: B1 RNA with G25C, A28C, U29G, A30C, A31G
DNA 1: CAATCTGAATTCCGGTCTCCC
DNA 2: TGGTGGCTACGACGGGATT
B31: UCAGCAA (DNA:RNA)
RNA: B1 RNA with G25U, U26C, G27A, A28G, U29C
DNA 1: CAATCTGAATTCCGGTCTCCC
DNA 2: TGGTGGCTACGACGGGATT

Target: T1, RBFOX1 RRM
Assay: EMSA; HiTS-Eq, 1 nM pool, 10 min; buffer printed only for the single-RNA assays: 10 mM Tris pH 7.5, 150 mM NaCl, 3.4 mM EDTA, 0.001% NP-40, 30 C
Details: tags: His6 N-terminal (pET28a); label: 5' 32P
How it was run: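 Purified RbFox RRM (wild type or mutant) was equilibrated for 10 min in 50 µL with 1 nM of a 5′-radiolabelled pool of RNA with 7 randomized nucleotides, its flanks annealed to DNA oligonucleotides, across increasing protein concentrations. Free RNA was separated by 8% native PAGE, excised, reverse-transcribed, PCR-barcoded and sequenced on an Illumina HiSeq 2500. Relative association constants came from read-count changes of each variant against the control reaction, normalised to the cognate motif.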

Binder	binding signal
B1	0.00986 KA relative to UGCAUGU
B2	0.0221 KA relative to UGCAUGU
B3	0.0177 KA relative to UGCAUGU
B4	0.0155 KA relative to UGCAUGU
B5	0.00481 KA relative to UGCAUGU
B6	0.0144 KA relative to UGCAUGU
B7	0.616 KA relative to UGCAUGU
B8	0.0172 KA relative to UGCAUGU
B9	0.00956 KA relative to UGCAUGU
B10	0.0143 KA relative to UGCAUGU
B11	0.000954 KA relative to UGCAUGU
B12	0.00318 KA relative to UGCAUGU
B13	0.00697 KA relative to UGCAUGU
B14	0.0125 KA relative to UGCAUGU
B15	0.0121 KA relative to UGCAUGU
B16	0.00145 KA relative to UGCAUGU

Binder	binding signal
B17	0.00513 KA relative to UGCAUGU
B18	0.0201 KA relative to UGCAUGU
B19	0.00244 KA relative to UGCAUGU
B20	0.00919 KA relative to UGCAUGU
B21	0.00826 KA relative to UGCAUGU
B22	0.0234 KA relative to UGCAUGU
B23	0.0153 KA relative to UGCAUGU
B24	0.00469 KA relative to UGCAUGU
B25	0.0113 KA relative to UGCAUGU
B26	0.00315 KA relative to UGCAUGU
B27	0.000539 KA relative to UGCAUGU
B28	0.0205 KA relative to UGCAUGU
B29	0.0288 KA relative to UGCAUGU
B30	0.0252 KA relative to UGCAUGU
B31	0.00519 KA relative to UGCAUGU
